Structures are written as SMILES. The campaign covered roughly 310,000 compounds. About 2,200 (0.71%) showed an effect of 50% or more. The effect is printed as a negative number. This is one part of the list.

Consider 55 compounds from publication PMC4336329 (PLoS ONE, 2015).

For this experiment, the target named is human ether-à-go-go-related gene (hERG) potassium channel (human, UniProt Q12809). The experiment in a line: primary screen, population patch clamp on CHO cells stably expressing hERG.
Sequence of human ether-à-go-go-related gene (hERG) potassium channel (Q12809 whole entry, looked up): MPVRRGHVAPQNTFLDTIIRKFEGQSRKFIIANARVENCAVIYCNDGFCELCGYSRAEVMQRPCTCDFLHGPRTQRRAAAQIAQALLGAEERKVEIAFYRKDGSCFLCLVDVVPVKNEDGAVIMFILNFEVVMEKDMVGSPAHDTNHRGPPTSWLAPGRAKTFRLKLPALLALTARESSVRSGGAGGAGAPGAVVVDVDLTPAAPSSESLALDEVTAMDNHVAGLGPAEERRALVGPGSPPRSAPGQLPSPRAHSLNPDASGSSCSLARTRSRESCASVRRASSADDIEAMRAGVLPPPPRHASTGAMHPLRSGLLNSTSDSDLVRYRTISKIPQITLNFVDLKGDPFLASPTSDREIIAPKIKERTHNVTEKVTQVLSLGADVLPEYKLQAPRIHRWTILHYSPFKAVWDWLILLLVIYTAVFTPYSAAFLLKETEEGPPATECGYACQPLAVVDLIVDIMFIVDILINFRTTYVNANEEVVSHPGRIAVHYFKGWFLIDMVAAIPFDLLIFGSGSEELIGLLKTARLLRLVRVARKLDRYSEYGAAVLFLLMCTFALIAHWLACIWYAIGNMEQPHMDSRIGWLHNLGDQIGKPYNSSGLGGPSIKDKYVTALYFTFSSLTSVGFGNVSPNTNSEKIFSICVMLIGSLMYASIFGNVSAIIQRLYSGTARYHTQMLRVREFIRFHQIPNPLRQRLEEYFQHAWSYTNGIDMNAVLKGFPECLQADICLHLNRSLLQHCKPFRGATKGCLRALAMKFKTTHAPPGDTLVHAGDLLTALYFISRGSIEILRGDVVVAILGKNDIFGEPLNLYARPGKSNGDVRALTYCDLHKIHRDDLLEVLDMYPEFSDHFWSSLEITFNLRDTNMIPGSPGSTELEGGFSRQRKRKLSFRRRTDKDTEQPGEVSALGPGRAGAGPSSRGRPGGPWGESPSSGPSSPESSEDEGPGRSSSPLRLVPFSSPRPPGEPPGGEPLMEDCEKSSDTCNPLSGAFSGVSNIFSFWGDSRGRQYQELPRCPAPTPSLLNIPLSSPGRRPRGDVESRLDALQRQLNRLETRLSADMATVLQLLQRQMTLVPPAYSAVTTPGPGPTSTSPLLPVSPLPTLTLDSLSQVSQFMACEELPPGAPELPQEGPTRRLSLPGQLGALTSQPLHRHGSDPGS
With `CN(CC(=O)Nc1ccc(F)cc1)C(=O)COC(=O)CSc1ccc(F)cc1`, the “hERG current change (%, negative = inhibition) at 1uM” value came out at 4.05%.
The result for `COc1ccc(NS(=O)(=O)c2ccc(N3CCN(CCO)CC3)c([N+](=O)[O-])c2)cc1` reads 19.6%.
The result for `CC1CCCCN1Cc1ccc(-c2nnn(CC(=O)NC3CCCCC3)n2)cc1` (stereo not shown) reads 11.7%; that for `CCOc1ccccc1C1CC(c2cccs2)=NN1S(C)(=O)=O` (stereo not shown), 4.46%; that for `COc1cc(C(c2nnnn2C2CCCC2)N2CCN(C(=O)c3ccco3)CC2)cc(OC)c1OC.Cl` (stereo not shown), 11.8%.
With `O=C(N/N=C/c1ccc2c(c1)OCO2)c1cc(-c2ccccc2)nc2ccccc12`, the “hERG current change (%, negative = inhibition) at 1uM” value was 19.5%.
Consider `CC1(C)Cc2c(sc(NC(=O)C(=O)N3CCCC3)c2C(N)=O)CO1`, for which the “hERG current change (%, negative = inhibition) at 1uM” value stood at 0.912%.
Turning to `Cc1cccc(C(=O)Nc2onc(C)c2C#N)c1`, the “hERG current change (%, negative = inhibition) at 1uM” value amounted to 13.8%.
Regarding `CCN(CC(=O)Nc1ccc(NC(C)=O)cc1)C(=O)c1ccccc1CCc1ccccc1`, the “hERG current change (%, negative = inhibition) at 1uM” value came out at 14.4%.
As for `CN(CC(O)COc1ccc(S(=O)(=O)N2CCOCC2)cc1Cl)C1CCCCC1.Cl` (stereo not shown), the “hERG current change (%, negative = inhibition) at 1uM” value is given as -0.0085%.
In the case of `CCOCCc1c(O)nc(SCC(=O)NCc2ccco2)[nH]c1=O`, the “hERG current change (%, negative = inhibition) at 1uM” value stood at 13.6%.
To `CCOC(=O)N1CCN(C(=O)CCl)CC1` belongs 14.1%; to `S=C(Nc1ccc2nccnc2c1)N1CCOCC1`, 5.06%; to `COc1ccc(NC(=O)NCc2ccccn2)c(OC)c1`, 1.77%.
On to `O=C(N/C(=C/c1ccco1)C(=O)N1CCCCCC1)c1ccccc1`, for which the “hERG current change (%, negative = inhibition) at 1uM” value turned out to be 7.84%.
Regarding `CSc1ncccc1C(=O)OCC(=O)NC1CCC(C)CC1` (stereo not shown), the “hERG current change (%, negative = inhibition) at 1uM” value amounted to 3.55%.
As for `CCOC(=O)c1cc2c(n(-c3ccc(Cl)cc3)c1=O)CCCC2=O`, the “hERG current change (%, negative = inhibition) at 1uM” value was 10.9%.
To `O=C(CCS(=O)(=O)c1cc(Br)cc2c1N(C(=O)C1CC1)CC2)N1CCN(c2ccccn2)CC1` belongs 6.22%; to `O=C(NC1CCCN(Cc2ccccc2F)C1)c1cccc(N2CCCC2=O)c1` (stereo not shown), 8.64%.
`COc1ccc(NC2CCCN(C(=O)CCc3cccc(F)c3)C2)cc1` (stereo not shown): the “hERG current change (%, negative = inhibition) at 1uM” value is 13.6%.
The result for `CC(=O)Nc1ccc(N/C(C)=C/C(=O)c2cccnc2)cc1` reads 2.32%.
To `O=C(NCCc1ccccc1)C1CCCN1S(=O)(=O)c1cccc2nsnc12` (stereo not shown) belongs 14.5%; to `COc1ccc(S(=O)(=O)N2CCCC(C(=O)N3CCN(c4ccccc4)CC3)C2)cc1Cl` (stereo not shown), -29.1%; to `COc1ccc(CCNc2cc(-c3ccccc3)nc3ncnn23)cc1`, 4.23%.
To `CC1=CC(=O)N(c2ccc(C)cc2)C1c1ccc(Cl)cc1` (stereo not shown) belongs 9.79%.
`Cc1ccc(N(CC(=O)N/N=C/c2ccc(OC3CSC3)cc2)S(=O)(=O)c2ccccc2)cc1`: the “hERG current change (%, negative = inhibition) at 1uM” value turned out to be 0.363%.
To `Cc1ccc(-c2c[n+](CC(=O)c3cccs3)c3n2CCC3)cc1.[Br-]` belongs 9.96%.
The result for `Cc1ccc(CN2CCN(CCCc3ccccc3)CC2CCO)cc1` (stereo not shown) reads -68.7%; that for `CCC(=O)Nc1cccc(C2=NOC3(C2)C[C@@H](C(N)=O)N(C(=O)c2ccc(OC)cc2)C3)c1` (stereo partly shown), 6.65%.
The result for `COCCCNC(=S)NNC(=O)c1cc(-c2cccnc2)nc2ccccc12` reads 0.755%; that for `O=C1CCN(CCCc2ccccc2)CCN1[C@H](CO)Cc1ccccc1`, -12%; that for `CC(C)(C)c1nnc(N/N=C/c2ccccc2O)n(N)c1=O`, 4.42%.
Consider `COC(=O)C12CCC3(SCCS3)C(C(=O)OC)(CCC13SCCS3)C2`, for which the “hERG current change (%, negative = inhibition) at 1uM” value is listed as 0.0895%.
In the case of `Cc1cc(C)n(-c2nc3ccccc3nc2N2CCCCCC2)n1`, the “hERG current change (%, negative = inhibition) at 1uM” value was found to be 14.4%.
To `Cc1ccc(S(=O)(=O)N2[C@@H](c3ccccc3)C(C(=O)O)=CC[C@H]2c2ccc(Cl)cc2)cc1` belongs 14.7%; to `COc1cc(C2NC(=O)NC(C)=C2C(=O)OC(C)C)ccc1OC(=O)c1ccco1` (stereo not shown), 12.7%; to `CC1CCCCN1C(=O)c1ccc(OC2CCN(S(=O)(=O)N(C)C)CC2)cc1` (stereo not shown), -6.39%.
For the compound `COc1ccc(N(Cc2cc3cccc(C)c3[nH]c2=O)S(=O)(=O)c2ccc(OC)cc2)cc1`, the “hERG current change (%, negative = inhibition) at 1uM” value came to 9.73%.
For the compound `CCCCNC(=O)OCCNC(=O)NC`, the “hERG current change (%, negative = inhibition) at 1uM” value worked out at 10.7%.
To `O=C(O)CC(CNS(=O)(=O)c1ccccc1)c1ccccc1` (stereo not shown) belongs 16.9%.
Take `CC(Oc1ccc2c3c(c(=O)oc2c1)CCCC3)C(=O)NCc1ccncc1` (stereo not shown): the “hERG current change (%, negative = inhibition) at 1uM” value was 16.3%.
In the case of `Cc1cccc(NC(=O)c2ccccc2NC(=O)CCC(=O)O)c1`, the “hERG current change (%, negative = inhibition) at 1uM” value is listed as -0.152%.
Take `CC(=O)Nc1ccc(N(CC(=O)NCC2CCCO2)C(=O)CCC(=O)Nc2cc(C)on2)cc1` (stereo not shown): the “hERG current change (%, negative = inhibition) at 1uM” value was determined as 9.05%.
`Cc1sc2nc(CSCC(=O)N(C)CC(=O)Nc3ccc(F)cc3)[nH]c(=O)c2c1C`: the “hERG current change (%, negative = inhibition) at 1uM” value is on record as 11.3%.
The result for `Cc1ccc(C(=O)CC(=O)c2ccc(C(C)(C)C)cc2)cc1` reads 11.1%; that for `CCC1Nc2ncnc(N3CCN(c4ccccc4)CC3)c2N(Cc2ccc(OC)cc2)C1=O.O=C(O)C(F)(F)F` (stereo not shown), 9.63%; that for `COc1ccc(S(=O)(=O)NCC2CCCN(Cc3cccc(C(C)=O)c3)C2)cc1` (stereo not shown), 6.25%.
The result for `COc1ccc2nc(NC(=O)CSC3=NCCS3)sc2c1` reads 8.05%.
To `COc1cccc(C(=O)Nc2c(F)c(F)c(F)c(F)c2F)c1` belongs 7.88%; to `CCN1C(=O)C2(C(C#N)=C(N)Oc3n[nH]c(COC)c32)c2ccccc21` (stereo not shown), 3.24%.
For `CCOc1ccc(N2C(=O)CC(NC3CCN(C(=O)c4cccc(Cl)c4)CC3)C2=O)cc1` (stereo not shown), the “hERG current change (%, negative = inhibition) at 1uM” value was 7.34%.
The result for `Cn1c(=O)c2[nH]c(N3CCN(c4cccc(O)c4)CC3)nc2n(C)c1=O` reads 16.9%; that for `CN=C1SC(CC(=O)Nc2cccc(C(F)(F)F)c2)C(=O)N1C` (stereo not shown), -0.689%.
The result for `O=C(COc1ccc(Cl)cc1)NCCN1CCCCC1` reads -1.49%; that for `CC(C)(C)NC(=O)NC(=O)COC(=O)Cc1c(Cl)cccc1Cl`, 10.1%.
